# According to PMC4336329 (PLoS ONE, 2015):
# Screen size: about 310,000 compounds; about 2,200 (0.71%) showed an effect of 50% or more. Effects have a minus sign here. The list shows a part of the results.
# Biological target: human ether-à-go-go-related gene (hERG) potassium channel (human, UniProt Q12809)
# Assay: primary screen, population patch clamp on CHO cells stably expressing hERG
# human ether-à-go-go-related gene (hERG) potassium channel, sequence (Q12809 whole entry, looked up): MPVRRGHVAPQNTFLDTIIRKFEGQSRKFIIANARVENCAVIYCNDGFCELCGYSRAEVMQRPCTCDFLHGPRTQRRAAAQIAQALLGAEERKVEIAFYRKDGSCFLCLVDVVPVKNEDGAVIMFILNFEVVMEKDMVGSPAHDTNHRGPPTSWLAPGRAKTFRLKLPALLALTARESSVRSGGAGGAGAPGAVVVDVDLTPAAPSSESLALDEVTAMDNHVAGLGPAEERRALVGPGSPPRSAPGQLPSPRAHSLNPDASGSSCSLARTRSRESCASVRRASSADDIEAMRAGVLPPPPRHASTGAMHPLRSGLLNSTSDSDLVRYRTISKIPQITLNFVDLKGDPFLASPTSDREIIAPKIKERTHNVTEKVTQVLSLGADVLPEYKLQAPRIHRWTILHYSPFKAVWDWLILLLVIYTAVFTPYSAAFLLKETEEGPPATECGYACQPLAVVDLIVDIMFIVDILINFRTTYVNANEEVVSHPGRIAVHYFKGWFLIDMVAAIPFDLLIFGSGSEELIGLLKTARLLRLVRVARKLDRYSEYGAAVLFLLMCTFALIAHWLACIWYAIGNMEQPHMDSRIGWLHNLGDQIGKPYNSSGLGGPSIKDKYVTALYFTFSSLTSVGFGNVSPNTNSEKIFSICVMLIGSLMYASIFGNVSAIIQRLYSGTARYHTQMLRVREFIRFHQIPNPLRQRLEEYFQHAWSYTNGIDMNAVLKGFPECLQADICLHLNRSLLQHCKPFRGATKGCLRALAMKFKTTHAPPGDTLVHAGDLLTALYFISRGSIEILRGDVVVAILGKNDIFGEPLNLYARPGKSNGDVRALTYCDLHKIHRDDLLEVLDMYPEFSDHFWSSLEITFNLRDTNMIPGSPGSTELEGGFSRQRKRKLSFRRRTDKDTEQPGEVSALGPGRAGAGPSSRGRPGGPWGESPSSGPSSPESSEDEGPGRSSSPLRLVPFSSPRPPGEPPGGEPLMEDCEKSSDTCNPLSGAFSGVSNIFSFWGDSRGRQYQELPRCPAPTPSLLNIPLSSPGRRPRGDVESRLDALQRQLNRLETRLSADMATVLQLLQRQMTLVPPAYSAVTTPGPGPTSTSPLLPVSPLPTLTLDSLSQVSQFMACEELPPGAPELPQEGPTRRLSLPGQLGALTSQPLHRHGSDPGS
row,SMILES,"hERG current change (%, negative = inhibition) at 1uM [%]"
1,CN(C)C=O.Oc1cccc2c(NC(=S)Nc3ccc(OC(F)F)cc3)cccc12,5.68
2,COc1ccc(CNC2CCCCC2)cc1,5.35
3,O=C(CSc1ccc(-c2ccccc2)nn1)N1CCCCC1,6.29
4,O=C(CNC(=O)c1ccc(Cl)cc1Cl)NCC(=O)Nc1ccccc1N1CCOCC1,-0.769
5,CC(C)(C)C(=O)Nc1ccc(C(=O)Nc2cccc(Oc3ccc(C(=O)O)c(C(=O)O)c3)c2)cc1,15
6,O=C(NN=C1CCCC1)c1ccc([N+](=O)[O-])cc1,3.89
7,O=C(Cc1ccccc1)Nc1ccccc1C(=O)N1CCCCCC1,3.51
8,COCCOC(=O)c1[nH]c2c(c1C)C(=O)CC(c1ccc(F)cc1)C2 (stereo not drawn),7.64
9,COc1cc(/C=C2\CCc3ccccc3C2=O)cc(OC)c1OC,4.71
10,Cc1cc(C)nc(SCC(=O)Nc2ccc(S(=O)(=O)N3CCCCC3)cc2)n1,-8
11,COc1ccc([C@H]2CC(=O)C=C(c3ccc(F)nc3)C2)cc1OC,5.73
12,c1ccc(Cc2nn3c(-c4ccncc4)nnc3s2)cc1,-9.42
13,COc1ccc(OC)c(NC(=O)c2cccc(N3C(=O)C4C5CCC(C5)C4C3=O)c2)c1 (stereo not drawn),2.22
14,CSc1nc(N)nc(SCC(=O)c2ccccc2)c1C#N,2.61
15,CCOC(=O)C1CN(S(=O)(=O)c2ccccc2)c2cc(S(=O)(=O)CC)ccc2O1 (stereo not drawn),7.58
16,COc1ccc(/C=N/NC(=O)c2ccncc2)cc1CN1CCCc2ccccc21,1.61
17,CC(/C=N/NC(=O)c1ccncc1)=C\c1ccccc1,15.3
18,COc1cccc(CN(C)C(=O)c2ccc(COc3ccc(Cl)cc3)cc2)c1OC,4.55
19,Cc1ccc(-c2nnc(Nc3ccc(C(=O)N(C)C)cc3)c3ccccc23)cc1S(=O)(=O)NC(C)(C)CO,5.95
20,CCOC(=O)N1CCC(c2cc(=O)n3[nH]c(C)c(-c4ccc(F)cc4)c3n2)CC1,12.5
21,Cc1ccc(SC2CCN(C(=O)C3CCC(=O)N(C4CC4)C3)CC2)cc1 (stereo not drawn),-11.1
22,CCOCc1[nH]c(=S)[nH]c(=O)c1Cc1ccc(OCC)cc1,15.2

row,SMILES,"hERG current change (%, negative = inhibition) at 1uM [%]"
1,O=C(Nc1ccc2c(c1)OCO2)Nc1ccc2c(c1)OCO2,13.8
2,COc1cccc(-n2nc(-c3ccnn3-c3ccccc3)c(=O)n(C)c2=O)c1,-8.21
3,Cc1cc(C)c2c3c(oc2n1)C(=O)N(c1cccc(Cl)c1)CC(=O)N3,6.73
4,CCc1cc(=O)oc2c(C)c(O)c(CN(C)C)cc12,6.29
5,CCOC(=O)c1cnc2c(C)cc(Cl)cc2c1N1CCN(C)CC1.Cl,5.36
6,CS(=O)(=O)c1nc(S(=O)(=O)c2ccc(Cl)cc2)c(N2CCC(O)CC2)s1,12.4
7,O=C(C1CC(=O)N(c2ccc(Cl)cc2)C1)N1CCC(c2nc3ccccc3[nH]2)CC1 (stereo not drawn),-22.3
8,CCN(CC)S(=O)(=O)c1ccc(Cl)c(C(=O)NCc2ccccc2Cl)c1,-3.23
9,CC(=O)Nc1cccc(NC(=O)C(=O)NCC(c2ccco2)N2CCc3ccccc3C2)c1 (stereo not drawn),-1.3
10,CC(C(=O)NCc1ccc2c(c1)OCO2)N1c2cccc3cccc(c23)S1(=O)=O (stereo not drawn),0.839
11,CC1(C)Oc2ccc3ccc(=O)oc3c2CC1O (stereo not drawn),16.4
12,c1ccc2c(c1)[nH]c1c(N3CCSCC3)ncnc12,8.19
13,COCCCNC(=O)Cn1c(=O)n(CC(=O)NCCc2ccc(OC)c(OC)c2)c(=O)c2sccc21,7.16
14,COc1ccc(-n2cc(C(=O)c3cc4ccccc4oc3=O)c(C(C)=O)n2)cc1,10.3
15,Cc1ccc(N2CCN(CCCN3C(=O)C4CCCN4C3=O)CC2)cc1.Cl (stereo not drawn),4.77
16,COc1cc2[nH]c(=S)n(Cc3cccs3)c(=O)c2cc1OC,4.19
17,OCC1(Cc2ccccc2)CCN(Cc2cc3ccccc3o2)CC1,-0.287
18,S=C(NC1CCCCC1)N1CCOCCOCCN(C(=S)NC2CCCCC2)CCOCCOCC1,6.91
19,O=C(CN1CCN(Cc2ccccc2)CC1)N1CCN(c2ccccc2)CC1,3.29
20,O=C(c1ccc(Br)cc1)N1CCCC1,8.43
21,CCC1(c2ccccc2)NC(=O)N(CC(=O)N(CC(=O)Nc2ccccc2C(F)(F)F)Cc2ccco2)C1=O (stereo not drawn),19
22,CCCNC(=O)CNC(=S)N(Cc1cc(OC)c(OC)c(OC)c1)C1CCCC1,-1.48

row,SMILES,"hERG current change (%, negative = inhibition) at 1uM [%]"
1,COC(=O)C1=C(CS(=O)(=O)c2ccccc2)NC(=O)NC1c1ccc(OC)c(OC)c1 (stereo not drawn),18.9
2,O=C(N/N=C/c1ccc(-c2ccccc2[N+](=O)[O-])o1)c1cncc(Br)c1,3.41
3,CC1CCCCC1NS(=O)(=O)c1ccc(S(=O)(=O)N2CCCC2)cc1 (stereo not drawn),6.36
4,COc1ccc(C(=O)c2c(-c3cccc(C)c3)oc3ccc(N4CCOCC4)cc23)cn1,17.6
5,Cc1ccc(C)c(OCc2cc(C(=O)N3CC[C@@H]4CCCC[C@H]4C3)no2)c1,8.15
6,O=C(/C=C/c1cccs1)NCc1cccnc1,11.2
7,COCCn1c(SCc2cccnc2)nnc1-c1c[nH]c2ccccc12,-7.38
8,COc1ccccc1OCCCCCCN1CCOCC1.O=C(O)C(=O)O,2.8
9,O=C(NCCC1=CCCCC1)c1ccc2c(c1)N(Cc1ccccc1)C(=O)CS2,-2.87
10,COc1cccc(CN2CC(C(=O)N(C)Cc3ccnc4ccccc34)CCC2=O)c1 (stereo not drawn),7.39
11,Cl.NCCNC(=O)c1c(O)c2cccc3c2n(c1=O)CCC3,8.67
12,COC(=O)n1c(SC)nc2ccccc21,15.1
13,COc1ccc(-c2cc(C(=O)NC3CCCC3)no2)cc1OC,0.758
14,O=C(CNC(=O)C1CCCCC1)Nc1cc(Cl)cc(Cl)c1,14.3
15,COc1ccc(Nc2nc(C(=O)N3CCc4ccccc4C3)cs2)cc1,14.3
16,O=C(NN1C(=O)C2C3C=CC(O3)C2C1=O)c1cccc(Br)c1 (stereo not drawn),22.1
17,Cc1cc(C(=O)N2CCCC(N3CCN(c4cccc(Cl)c4)CC3)C2)nc(C)n1 (stereo not drawn),1.77
18,Cc1cc(C)n(-c2ccc([N+](=O)[O-])cc2-c2nn[nH]n2)n1,14.1
19,CC(C)CNC1CCS(=O)(=O)C1.Cl (stereo not drawn),9.24
20,COc1ccc([N+](=O)[O-])cc1NC(=O)COC(=O)c1ccc(O)cc1,8.66
21,Cc1c(N2C(=O)/C(=C\C3CC=CCC3)SC2=S)c(=O)n(-c2ccccc2)n1C (stereo not drawn),14.5
22,CCN(CC)C(=O)CSC1=Nc2ccccc2C2=NC(c3ccccc3)C(=O)N12 (stereo not drawn),-18.3

row,SMILES,"hERG current change (%, negative = inhibition) at 1uM [%]"
1,CCC1CCc2c(c3ccccc3[nH]c2=O)O1 (stereo not drawn),5.26
2,COc1ccc(C(=O)NC(=S)NCc2ccco2)cc1OC,-2.68
3,CN(C)CCOC(c1ccc(Cl)cc1)c1ccccn1.O=C(O)/C=C/C(=O)O (stereo not drawn),-3.6
4,C=CCn1c(SCC(=O)Nc2cc(C)ccc2OC)nnc1-c1ccco1,-23
5,C/C(=N\Nc1cccc([N+](=O)[O-])c1)c1cc2ccccc2o1,6.28
6,Cc1nc2ccccc2n1CC(=O)NCCN1CCOCC1,2.85
7,O=C(Cn1nnc(-c2cccs2)n1)Nc1ccccc1C(F)(F)F,5.93
8,COc1ccc2oc(C(=O)Nc3nccs3)c(C)c2c1,14.7
9,CCN(CC)S(=O)(=O)c1ccc(C)c(NC(=O)CNCCN(C(C)C)C(C)C)c1.O=C(O)C(=O)O,-66.5
10,COc1ccc(CN2CCn3ncc(C(=O)Nc4cc(C)cc(C)c4)c3C2=O)cc1,10.7
11,CCOC(=O)Cc1csc(NS(=O)(=O)c2ccc(SC)cc2)n1,15.1
12,CC1(C)Cc2c(C#N)c(OCC(=O)c3ccc(Cl)cc3)nc(-c3ccoc3)c2CO1,12.5
13,Nc1nn(-c2ccccc2Cl)cc1-c1nn[nH]n1,17.9
14,COc1ccc(CCNC(=S)N2CCN(S(=O)(=O)c3ccc(Cl)cc3)CC2)cc1,14.3
15,C=CCn1c(SCC(=O)NCc2ccc3c(c2)OCO3)nnc1C1COc2ccccc2O1 (stereo not drawn),8.53
16,CC(C)c1ccc(NC2CCCN(C(=O)c3cnn(C(C)C)c3)C2)cc1 (stereo not drawn),3.48
17,COc1ccc(CC(=O)Nc2ccc(-c3nnc(-c4ccccc4)o3)cc2)cc1,-5.58
18,C#CCOc1ccc(Br)cc1C(c1c(C)[nH][nH]c1=O)c1c(C)[nH][nH]c1=O,11.6
19,Cc1ccc(C)c2[nH]c(=O)c(CCNC(=O)CC(C)(C)C)cc12,13
20,Cc1nc2c(s1)sc1ccccc12,6.36
21,CC(C)CCN1C(=O)c2ccc(C(=O)OCC(=O)N(C)C3CCS(=O)(=O)C3)cc2C1=O (stereo not drawn),6.71
